Experimental findings from the supplement of paper PMC9174493 are described below.

Experiment [1] relates to A549-Dual. Kind of experiment: NF-kB reporter (SEAP) activity, viability-corrected, relative to vehicle (fold change vs vehicle); higher = more activation of STING-IRF / NF-kB immune response reporter. The following applies: 10 µM.
In experiment [2] the test system is A549-Dual. Kind of experiment: ISRE reporter (Lucia luciferase) activity, viability-corrected, relative to vehicle (fold change vs vehicle); higher = more activation of STING-IRF / NF-kB immune response reporter. The conditions noted are these: 10 µM.

Structures are written as SMILES. The list shows a part of the results. Single values of this set are uncertain. Values with irradiation are relative to irradiated vehicle.
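Wherever NF-kB reporter (SEAP) activity, viability-corrected, relative to vehicle is given: viability correction based on the alamar blue assay, with concentrations leaving 10% survival or less dropped.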

In the case of `Cc1ncc(COP(=O)(O)O)c(C=O)c1O.O` [Pyridoxal 5-phosphate monohydrate], the NF-kB reporter is 1.02 in the experiment on A549-Dual [1] (irradiation: 8 Gy/4 fr) and 0.623 in the experiment with A549-Dual [1] (irradiation: none). Further, the ISRE reporter in the experiment on A549-Dual [2] (irradiation: 8 Gy/4 fr) was 1.01; in the experiment on A549-Dual [2] (irradiation: none) it was 0.536.
Consider `COC(=O)c1ccccc1O` [Methyl salicylate], for which the NF-kB reporter with A549-Dual [1] (irradiation: 8 Gy/4 fr) was found to be 0.756; in the experiment on A549-Dual [1] (irradiation: none) it was 1.28. Further, the results for the ISRE reporter in the experiment with A549-Dual [2] (irradiation: 8 Gy/4 fr) and in the experiment on A549-Dual [2] (irradiation: none) were 0.754 and 0.857, respectively.
Take `CN(C)c1ccc(O)c2c1CC1CC3C(N(C)C)C(O)=C(C(N)=O)C(=O)C3(O)C(O)=C1C2=O.Cl` (configuration not stated) [Minocycline HCl]: the NF-kB reporter in the experiment with A549-Dual [1] (irradiation: 8 Gy/4 fr) amounted to 0.922; with A549-Dual [1] (irradiation: none), 0.854. Moreover, the figures for the ISRE reporter in the experiment with A549-Dual [2] (irradiation: 8 Gy/4 fr) and in the experiment with A549-Dual [2] (irradiation: none) were 0.742 and 1, respectively.
On the same counts, the results for `CC(=O)CCCCn1c(=O)c2c(ncn2C)n(C)c1=O` [Pentoxifylline] are 1.07, 1.01, 0.938 and 0.648.
With `Cl.NC1C(O)OC(CO)C(O)C1O` (configuration not stated) [Glucosamine hydrochloride], the values for the NF-kB reporter with A549-Dual [1] (irradiation: 8 Gy/4 fr) and in the experiment with A549-Dual [1] (irradiation: none) were 1.04 and 1.15, respectively. The ISRE reporter was found to be 0.856 with A549-Dual [2] (irradiation: 8 Gy/4 fr) and 0.717 in the experiment with A549-Dual [2] (irradiation: none).
With `Cc1cnc(C(=O)O)c[n+]1[O-]` [Acipimox], the NF-kB reporter in the experiment on A549-Dual [1] (irradiation: 8 Gy/4 fr) is 0.738; with A549-Dual [1] (irradiation: none) it was 1.16. Further, the ISRE reporter with A549-Dual [2] (irradiation: 8 Gy/4 fr) was 0.55; with A549-Dual [2] (irradiation: none) it was 0.584.
With `Cl.Nc1c(Br)cc(Br)cc1CNC1CCC(O)CC1` (configuration not stated) [Ambroxol HCl], the NF-kB reporter in the experiment on A549-Dual [1] (irradiation: 8 Gy/4 fr) amounted to 0.857; with A549-Dual [1] (irradiation: none) it was 0.941. Further, the ISRE reporter with A549-Dual [2] (irradiation: 8 Gy/4 fr) worked out at 0.994; in the experiment with A549-Dual [2] (irradiation: none), 0.76.
In the case of `CN/C(=C\[N+](=O)[O-])NCCSCc1ccc(CN(C)C)o1` [Ranitidine], the NF-kB reporter with A549-Dual [1] (irradiation: 8 Gy/4 fr) came to 0.78; in the experiment with A549-Dual [1] (irradiation: none), 0.864. The results for the ISRE reporter with A549-Dual [2] (irradiation: 8 Gy/4 fr) and in the experiment with A549-Dual [2] (irradiation: none) were 0.668 and 0.861, respectively.
As to `CCC(C)C(=O)OC1CCC=C2C=CC(C)C(CCC3CC(O)CC(=O)O3)C21` (configuration not stated) [Mevastatin], the NF-kB reporter with A549-Dual [1] (irradiation: 8 Gy/4 fr) came to 1.61; with A549-Dual [1] (irradiation: none), 2.59. The ISRE reporter was 0.386 in the experiment with A549-Dual [2] (irradiation: 8 Gy/4 fr) and 1.26 with A549-Dual [2] (irradiation: none).
Consider `CC(=O)OCC[N+](C)(C)C.[Cl-]` [Acetylcholine Chloride], for which the NF-kB reporter with A549-Dual [1] (irradiation: 8 Gy/4 fr) is 1.02; in the experiment on A549-Dual [1] (irradiation: none), 1.03. Moreover, the values for the ISRE reporter with A549-Dual [2] (irradiation: 8 Gy/4 fr) and in the experiment with A549-Dual [2] (irradiation: none) were 0.908 and 0.632, respectively.
Taken in the same sequence, the figures for `Cn1nnnc1SCC1=C(C(=O)[O-])N2C(=O)C(NC(=O)C(OC=O)c3ccccc3)C2SC1.[Na+]` (configuration not stated) [Cefamandole nafate] were 0.973, 1.07, 0.893 and 0.896.
As to `Cl.Cl.OCCN1CCN(CC/C=C2/c3ccccc3Sc3ccc(C(F)(F)F)cc32)CC1` [Flupenthixol dihydrochloride], the results for the NF-kB reporter in the experiment with A549-Dual [1] (irradiation: 8 Gy/4 fr) and in the experiment on A549-Dual [1] (irradiation: none) were 0.404 and 0.769, respectively. Also, the ISRE reporter in the experiment with A549-Dual [2] (irradiation: 8 Gy/4 fr) stood at 0.415; with A549-Dual [2] (irradiation: none), 1.01.
On to `CC(CS)C(=O)N1CCCC1C(=O)O` (configuration not stated) [Captopril], for which the NF-kB reporter was found to be 0.832 with A549-Dual [1] (irradiation: 8 Gy/4 fr) and 0.774 with A549-Dual [1] (irradiation: none). The results for the ISRE reporter with A549-Dual [2] (irradiation: 8 Gy/4 fr) and with A549-Dual [2] (irradiation: none) were 0.858 and 0.752, respectively.
